This note sets out measurements from PMC9911399, “Two distinct binding modes provide the RNA-binding protein RbFox with extraordinary sequence specificity”.

B1: GUGGCUA (DNA:RNA)
RNA: GGGAGACCGGAAUUCAGAUUGUCCGUGGCUAUUAAAUCCCGUCGUAGCCACCA
DNA 1: CAATCTGAATTCCGGTCTCCC
DNA 2: TGGTGGCTACGACGGGATT
B2: CAACCAG (DNA:RNA)
RNA: B1 RNA with G25C, U26A, G27A, G28C, U30A, A31G
DNA 1: CAATCTGAATTCCGGTCTCCC
DNA 2: TGGTGGCTACGACGGGATT
B3: UUGCUGU (DNA:RNA)
RNA: B1 RNA with G25U, G28C, C29U, U30G, A31U
DNA 1: CAATCTGAATTCCGGTCTCCC
DNA 2: TGGTGGCTACGACGGGATT
B4: UACUCAC (DNA:RNA)
RNA: B1 RNA with G25U, U26A, G27C, G28U, U30A, A31C
DNA 1: CAATCTGAATTCCGGTCTCCC
DNA 2: TGGTGGCTACGACGGGATT
B5: CUUCAAA (DNA:RNA)
RNA: B1 RNA with G25C, G27U, G28C, C29A, U30A
DNA 1: CAATCTGAATTCCGGTCTCCC
DNA 2: TGGTGGCTACGACGGGATT
B6: ACCAUUA (DNA:RNA)
RNA: B1 RNA with G25A, U26C, G27C, G28A, C29U
DNA 1: CAATCTGAATTCCGGTCTCCC
DNA 2: TGGTGGCTACGACGGGATT
B7: CGCAAAU (DNA:RNA)
RNA: GGGAGACCGGAAUUCAGAUUGUCCCGCAAAUUUAAAUCCCGUCGUAGCCACCA
DNA 1: CAATCTGAATTCCGGTCTCCC
DNA 2: TGGTGGCTACGACGGGATT
B8: AAAAGAG (DNA:RNA)
RNA: B7 RNA with C25A, G26A, C27A, A29G, U31G
DNA 1: CAATCTGAATTCCGGTCTCCC
DNA 2: TGGTGGCTACGACGGGATT
B9: CUAUUAC (DNA:RNA)
RNA: B7 RNA with G26U, C27A, A28U, A29U, U31C
DNA 1: CAATCTGAATTCCGGTCTCCC
DNA 2: TGGTGGCTACGACGGGATT
B10: GACCGGC (DNA:RNA)
RNA: B7 RNA with C25G, G26A, A28C, A29G, A30G, U31C
DNA 1: CAATCTGAATTCCGGTCTCCC
DNA 2: TGGTGGCTACGACGGGATT
B11: AUAUUCG (DNA:RNA)
RNA: B1 RNA with G25A, G27A, G28U, C29U, U30C, A31G
DNA 1: CAATCTGAATTCCGGTCTCCC
DNA 2: TGGTGGCTACGACGGGATT
B12: GAUAUAU (DNA:RNA)
RNA: B7 RNA with C25G, G26A, C27U, A29U
DNA 1: CAATCTGAATTCCGGTCTCCC
DNA 2: TGGTGGCTACGACGGGATT
B13: CUCGUGG (DNA:RNA)
RNA: B7 RNA with G26U, A28G, A29U, A30G, U31G
DNA 1: CAATCTGAATTCCGGTCTCCC
DNA 2: TGGTGGCTACGACGGGATT
B14: AGGGUAC (DNA:RNA)
RNA: B7 RNA with C25A, C27G, A28G, A29U, U31C
DNA 1: CAATCTGAATTCCGGTCTCCC
DNA 2: TGGTGGCTACGACGGGATT
B15: CUUGCUG (DNA:RNA)
RNA: B1 RNA with G25C, G27U, A31G
DNA 1: CAATCTGAATTCCGGTCTCCC
DNA 2: TGGTGGCTACGACGGGATT
B16: ACUACUU (DNA:RNA)
RNA: B7 RNA with C25A, G26C, C27U, A29C, A30U
DNA 1: CAATCTGAATTCCGGTCTCCC
DNA 2: TGGTGGCTACGACGGGATT
B17: GUAUUGU (DNA:RNA)
RNA: B1 RNA with G27A, G28U, C29U, U30G, A31U
DNA 1: CAATCTGAATTCCGGTCTCCC
DNA 2: TGGTGGCTACGACGGGATT
B18: GAGGACA (DNA:RNA)
RNA: B1 RNA with U26A, C29A, U30C
DNA 1: CAATCTGAATTCCGGTCTCCC
DNA 2: TGGTGGCTACGACGGGATT
B19: CACAUUC (DNA:RNA)
RNA: B7 RNA with G26A, A29U, A30U, U31C
DNA 1: CAATCTGAATTCCGGTCTCCC
DNA 2: TGGTGGCTACGACGGGATT
B20: UCGCUGG (DNA:RNA)
RNA: B1 RNA with G25U, U26C, G28C, C29U, U30G, A31G
DNA 1: CAATCTGAATTCCGGTCTCCC
DNA 2: TGGTGGCTACGACGGGATT
B21: UAGCGAU (DNA:RNA)
RNA: B7 RNA with C25U, G26A, C27G, A28C, A29G
DNA 1: CAATCTGAATTCCGGTCTCCC
DNA 2: TGGTGGCTACGACGGGATT
B22: GAAAUCC (DNA:RNA)
RNA: B7 RNA with C25G, G26A, C27A, A29U, A30C, U31C
DNA 1: CAATCTGAATTCCGGTCTCCC
DNA 2: TGGTGGCTACGACGGGATT
B23: GCAUGGG (DNA:RNA)
RNA: B1 RNA with U26C, G27A, G28U, C29G, U30G, A31G
DNA 1: CAATCTGAATTCCGGTCTCCC
DNA 2: TGGTGGCTACGACGGGATT
B24: CCAAGUG (DNA:RNA)
RNA: B7 RNA with G26C, C27A, A29G, A30U, U31G
DNA 1: CAATCTGAATTCCGGTCTCCC
DNA 2: TGGTGGCTACGACGGGATT
B25: GAGUGAG (DNA:RNA)
RNA: B1 RNA with U26A, G28U, C29G, U30A, A31G
DNA 1: CAATCTGAATTCCGGTCTCCC
DNA 2: TGGTGGCTACGACGGGATT
B26: UGUUUGU (DNA:RNA)
RNA: B7 RNA with C25U, C27U, A28U, A29U, A30G
DNA 1: CAATCTGAATTCCGGTCTCCC
DNA 2: TGGTGGCTACGACGGGATT
B27: UCGGGUU (DNA:RNA)
RNA: B1 RNA with G25U, U26C, C29G, A31U
DNA 1: CAATCTGAATTCCGGTCTCCC
DNA 2: TGGTGGCTACGACGGGATT
B28: AACGAAG (DNA:RNA)
RNA: B7 RNA with C25A, G26A, A28G, U31G
DNA 1: CAATCTGAATTCCGGTCTCCC
DNA 2: TGGTGGCTACGACGGGATT
B29: GAUAUCG (DNA:RNA)
RNA: B7 RNA with C25G, G26A, C27U, A29U, A30C, U31G
DNA 1: CAATCTGAATTCCGGTCTCCC
DNA 2: TGGTGGCTACGACGGGATT
B30: ACGUGUG (DNA:RNA)
RNA: B1 RNA with G25A, U26C, G28U, C29G, A31G
DNA 1: CAATCTGAATTCCGGTCTCCC
DNA 2: TGGTGGCTACGACGGGATT
B31: ACGGUAG (DNA:RNA)
RNA: B1 RNA with G25A, U26C, C29U, U30A, A31G
DNA 1: CAATCTGAATTCCGGTCTCCC
DNA 2: TGGTGGCTACGACGGGATT

Where a chain is given by its changes, count along the chain named. Some of the results follow.

The target in the assay is T1, RBFOX1 RRM RbFoxmut (Fox-RRM*) (Homo sapiens, UniProt Q9NWB1 109-208, R118D;E147R;N151S;E152T).
T1 sequence: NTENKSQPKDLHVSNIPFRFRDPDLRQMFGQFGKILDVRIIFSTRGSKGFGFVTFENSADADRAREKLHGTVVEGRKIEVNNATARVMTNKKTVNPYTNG
The assay is described as follows: EMSA; HiTS-Eq, 1 nM pool, 10 min; buffer printed only for the single-RNA assays: 10 mM Tris pH 7.5, 150 mM NaCl, 3.4 mM EDTA, 0.001% NP-40, 30 C. The following applies: tags: His6 N-terminal (pET28a); label: 5' 32P. The method in brief:
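A pool of RNA with 7 randomized nucleotides, 5′-radiolabelled and with DNA-annealed flanks, was equilibrated at 1 nM for 10 min in 50 µL with purified RbFox RRM, wild type or mutant, across increasing protein concentrations. Free RNA was separated by 8% native PAGE, excised, reverse-transcribed, barcoded by PCR and sequenced. Relative association constants were obtained from read-count changes of each RNA species versus the control reaction and normalised to the cognate motif.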
Background: In EMSA bound probe runs differently from free probe, usually more slowly.
As for B1, the binding signal is 0.143 KA relative to UGCAUGU.
In the case of B2, the binding signal is 0.094 KA relative to UGCAUGU.
The value for B3 was 0.158 KA relative to UGCAUGU; that for B4 was 0.0678 KA relative to UGCAUGU; that for B5 was 0.0963 KA relative to UGCAUGU.
As to B6, the binding signal is 0.125 KA relative to UGCAUGU.
The figure for B7 is 0.086 KA relative to UGCAUGU; for B8 it is 0.0968 KA relative to UGCAUGU; for B9 it is 0.121 KA relative to UGCAUGU.
The figure for B10 is 0.104 KA relative to UGCAUGU; for B11 it is 0.123 KA relative to UGCAUGU; for B12 it is 0.109 KA relative to UGCAUGU.
The value for B13 was 0.0647 KA relative to UGCAUGU; that for B14 was 0.106 KA relative to UGCAUGU.
For B15, the binding signal is 0.128 KA relative to UGCAUGU.
As for B16, the binding signal is 0.114 KA relative to UGCAUGU.
The figure for B17 is 0.309 KA relative to UGCAUGU.
Consider B18, for which the binding signal was 0.0433 KA relative to UGCAUGU.
The figure for B19 is 0.0841 KA relative to UGCAUGU.
Regarding B20, the binding signal is 0.11 KA relative to UGCAUGU.
For the molecule B21, the binding signal is 0.0684 KA relative to UGCAUGU.
The figure for B22 is 0.0537 KA relative to UGCAUGU; for B23 it is 0.322 KA relative to UGCAUGU.
The figure for B24 is 0.119 KA relative to UGCAUGU; for B25 it is 0.133 KA relative to UGCAUGU; for B26 it is 0.549 KA relative to UGCAUGU.
As for B27, the binding signal is 0.0985 KA relative to UGCAUGU.
For the molecule B28, the binding signal was 0.0636 KA relative to UGCAUGU.
B29: the binding signal was 0.148 KA relative to UGCAUGU.
The figure for B30 is 0.203 KA relative to UGCAUGU.
The value for B31 was 0.125 KA relative to UGCAUGU.
